Whole data set: some 110,000 compounds, median “z-score” near -0.1, cut for the highest 2% near 2. Some of the results follow. Activity calls are given as the source filed them.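 How the source made its calls: active means z-score in the third read window above 3 or below -3; inactive means the rest.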

This assay concerns the target Metabotropic glutamate receptor 8 (Rattus norvegicus) (UniProt P70579). The experiment in a line: mGluR8 Gi/Go-coupled signaling modulation – cell-based, rat, thallium flux, HTS, primary screen (AID 488969). The settings on record: HEK293 rat mGluR8, GIRK (G protein-gated inwardly rectifying potassium channel) thallium flux, FluoZin2; at 10 µM; stronger effect = higher value; submaximal glutamate (EC20) added with thallium.
Sequence of UniProt P70579 (P70579 whole entry, looked up): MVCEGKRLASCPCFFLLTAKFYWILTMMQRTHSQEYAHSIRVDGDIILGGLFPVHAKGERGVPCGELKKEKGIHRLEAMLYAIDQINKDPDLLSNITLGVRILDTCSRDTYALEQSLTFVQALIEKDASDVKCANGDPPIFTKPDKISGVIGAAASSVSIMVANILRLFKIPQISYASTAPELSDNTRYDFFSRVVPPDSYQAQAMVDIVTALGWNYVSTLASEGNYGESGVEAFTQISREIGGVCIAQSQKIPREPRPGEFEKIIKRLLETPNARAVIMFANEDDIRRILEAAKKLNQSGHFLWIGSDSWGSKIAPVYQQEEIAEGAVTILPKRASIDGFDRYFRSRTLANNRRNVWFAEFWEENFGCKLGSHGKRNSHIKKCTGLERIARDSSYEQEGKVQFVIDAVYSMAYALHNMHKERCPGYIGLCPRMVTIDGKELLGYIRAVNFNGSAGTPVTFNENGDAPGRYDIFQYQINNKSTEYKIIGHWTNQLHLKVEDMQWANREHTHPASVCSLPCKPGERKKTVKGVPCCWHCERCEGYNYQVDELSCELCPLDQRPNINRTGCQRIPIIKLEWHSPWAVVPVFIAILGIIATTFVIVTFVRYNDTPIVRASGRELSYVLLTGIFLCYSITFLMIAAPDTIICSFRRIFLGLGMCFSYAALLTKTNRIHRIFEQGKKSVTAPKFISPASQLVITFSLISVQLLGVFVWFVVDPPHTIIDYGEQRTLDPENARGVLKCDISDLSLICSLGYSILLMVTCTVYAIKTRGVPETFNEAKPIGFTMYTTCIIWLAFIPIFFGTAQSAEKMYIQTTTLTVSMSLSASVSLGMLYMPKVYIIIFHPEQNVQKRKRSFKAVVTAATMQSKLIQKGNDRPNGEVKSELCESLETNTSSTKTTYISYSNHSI
In the case of `Nc1nnc(SCc2ccc3c(c2)OCO3)s1`, the z-score was -0.203.

On to `COc1ccc(Cl)cc1C(=O)Nc1ccccc1N1CCN(C(=O)C(C)C)CC1`, for which the z-score was 0.564. Then `C/C(=N\NC(=O)c1csc(C)c1C)c1ccco1`, with 0.816; and `CC1CCC(NC(=O)c2ccc3nc[nH]c3c2)CC1` (stereo not given), with 0.0196. As for `Cc1ccc(SCCNC(=O)c2ccc(C)c(S(=O)(=O)Nc3cccc(C)c3)c2)cc1`, the z-score was found to be 0.00716. `O=C(c1ccccc1)N1CCN(S(=O)(=O)N2CCCCC2)CC1`: the z-score was 0.169. In the case of `CCCc1nn(C)c2c1C(c1cccnc1)C(C#N)=C(N)O2` (stereo not given), the z-score came to 0.17. With `CCCCc1ccc(-c2csc(/C(C#N)=C/c3ccco3)n2)cc1`, the z-score was -0.275. Then `O=C(COC(=O)/C(=C/c1cccs1)c1cccs1)NC(c1ccccc1)c1ccccc1`, with -0.181; and `CN(CC(=O)NCCCN1CCOCC1)S(=O)(=O)c1ccc(Br)cc1`, with -0.0521; and `c1cn(CCCNC2=NCCCCC2)cn1`, with 0.103. Then `COc1ccsc1C(=O)N1CCN(Cc2ccc3c(c2)OCO3)CC1`, with -0.0804. Then `O=C(C[n+]1cc(-c2ccc(Cl)cc2)n2c1CCC2)N1c2ccccc2Sc2ccccc21`, with -0.557; and `Cc1ccc(OCCN2C(=O)NC3(CCc4ccccc4C3)C2=O)cc1` (stereo not given), with -0.248; and `FC(F)(F)c1cccc(NC(=S)NCc2ccccn2)c1`, with 0.164. With `COc1ccc(C(=O)NCC(=O)OCC(=O)c2cc(OC)c(OC)c(OC)c2)cc1OC`, the z-score is -0.173. Then `COc1cc(/C=C(\C#N)C(N)=O)ccc1OS(=O)(=O)c1ccc(C)cc1`, with -0.309; and `CC1CCN(CC(=O)Nc2sc3c(c2C#N)CCC3)CC1`, with -0.0666; and `COc1ccc(CSc2nnc(SCc3ccc([N+](=O)[O-])cc3)s2)cc1`, with -0.17. The same measure for `COc1ccc(NC(=O)COC(=O)Cc2ccc(-c3ccccc3)cc2)c(OC)c1`: -0.142. The same measure for `Cc1ccccc1CSc1ncc(C#N)c(N)n1`: -0.442.

Take `COc1ccc(CNc2nc3nc(C)cc(C)n3n2)cc1OC`: the z-score was found to be 0.946. The same measure for `CN(C(=O)c1ccc(C(=O)N(C)C2CCCCC2)cc1)C1CCCCC1`: 0.244; for `O=C(c1cc(-c2ccc(Cl)cc2)n(-c2ccc(Cl)c(Cl)c2)n1)N1CCOCC1`: 0.24. The same measure for `CC(Oc1ccc(F)cc1)C(=O)Nc1sc2c(c1C(=O)NCc1cccnc1)CCCC2` (stereo not given): -0.461; for `O=C(c1cc2ccccc2oc1=O)N(c1ccc(Cl)cc1)C1C=CS(=O)(=O)C1` (stereo not given): -0.236. Molecule `CC(NS(=O)(=O)c1cccc(S(=O)(=O)c2ccccc2)c1)C(=O)O` (stereo not given) yielded a z-score of 0.0424. The same measure for `CN(C)S(=O)(=O)c1ccc(N2CCCC2)c(C(=O)Nc2nc3c(ccc4ccccc43)s2)c1`: 0.513; for `Cc1cc(C(F)(F)F)c2c(N)c(C(=O)Nc3cc(C)on3)sc2n1`: 0.209; for `CN(C)CCN1C(=O)c2oc3ccc(Cl)cc3c(=O)c2C1c1cccc(Br)c1` (stereo not given): 1.89. Then `CC(=O)Nc1cc(NC(=O)CCCC(=O)O)ccc1Cl`, with 0.939; and `N/C(=N\OC(=O)CCCN1C(=O)c2ccccc2C1=O)c1ccc(Br)cc1`, with -0.204. For `COc1cccc(-c2nc(Oc3cccc(C)c3C)c3ccccc3n2)c1O`, the z-score was -0.227. As to `CC(/C=N/NC(=O)c1cc(-c2ccncc2)nc2ccccc12)=C\c1ccco1`, the z-score was -0.245.

Turning to `O=C(NC(NC(=S)N1CCOCC1)C(Cl)(Cl)Cl)c1cccc2ccccc12` (stereo not given), the z-score is -0.281. On to `COCCNC(=O)c1cc(-c2ccc3c(c2)OCO3)on1`, for which the z-score worked out at 0.152. Turning to `CCCOc1ccc(/C=N/NC(=O)c2ccc(Cn3cc([N+](=O)[O-])cn3)o2)cc1`, the z-score was -0.292.

`COc1ccc(S(=O)(=O)NCC(c2cccnc2)N2CCN(c3ccccc3)CC2)cc1C` (stereo not given) gave a z-score of -0.00582. In turn, `CC(=O)NC1(C(F)(F)F)C(=O)Nc2c1c(=O)n(C)c(=O)n2C` (stereo not given) had a z-score of 0.969. For `COC(=O)CSC1=C(C#N)C(c2ccsc2)CC(=O)N1` (stereo not given), the z-score was -0.166. Then `COc1ccc(C)cc1C1=Nc2ccccc2C1(C)C`, with -0.42; and `O=C(Cc1coc2ccc3ccccc3c12)NCc1cccs1`, with -0.0182. The same measure for `COC(=O)C1=C(O)/C(=C\c2ccc(O)c(OC)c2)N=C1C`: -0.206; for `CCc1ccccc1NC(=O)Cn1nc(C(F)(F)F)cc1C1CC1`: 0.0708; for `CCCOC(=O)C(C)n1cnc2sc(C)c(C)c2c1=O` (stereo not given): 0.00229. In turn, `Cc1ccc(NC(=O)CCC(=O)NNC(=O)c2ccco2)c(C)c1` returned a z-score of -0.251. In turn, `[O-][n+]1onc2c1CCC1N(O)C(c3ccccc3)CC21O` (stereo not given) came in with a z-score of -0.29.

The molecule `COc1ccc(Nc2nc3ccccc3nc2NS(=O)(=O)c2cccs2)cc1` had a z-score of -0.119. Then `COc1cccc(NC(=O)Cn2c(=O)n(CCCC(=O)NCc3ccco3)c(=O)c3ccccc32)c1`, with -0.143. Regarding `COc1cccc(C(=O)Nc2ccccc2C(=O)N2CCCC2)c1`, the z-score is -0.477. Then `CN(C)S(=O)(=O)c1ccc2c(c1)c(=O)c(C(=O)N1CCOCC1)cn2C`, with 0.863; and `CCOC(=O)c1c(NC(=O)c2cc(C(C)C)on2)sc(C(C)=O)c1C`, with -0.0726; and `CC(C)(C)c1ccc(C(=O)CSc2nc3ccccc3c(=O)[nH]2)cc1`, with 0.164. In the case of `CCOc1ccc(-n2c(N)c(C(=O)NCc3ccco3)c3nc4ccccc4nc32)cc1`, the z-score is -0.213. The same measure for `CCNc1nc(NCC)nc(SCCOC(=O)COc2ccc(Cl)cc2Cl)n1`: -0.348; for `COc1cc(CC(=O)NCc2ccco2)cc(OC)c1OC`: -0.12. Then `Cc1nc(NC(CC(C)C)C(=O)O)c2nc(C)oc2n1` (stereo not given), with -0.22; and `COc1ccc(C(=O)N(CCN2CCOCC2)CC(=O)NC2CCCC2)cc1OC`, with -0.289; and `O=[N+]([O-])c1cc2c(cc1/C=N/n1c(-c3ccccc3)n[nH]c1=S)OCO2`, with 0.135.

The molecule `NC(=O)c1sc2nc3c(c(-c4ccccc4)c2c1N)CCC3` had a z-score of -0.58. The molecule `O=C(NCc1ccccc1)c1c(F)c(F)c(F)c(F)c1F` yielded a z-score of -0.0578. The same measure for `CCCNC(=O)NS(=O)(=O)c1cnccc1Sc1ccc(Cl)c(Cl)c1`: -0.403. Then `CC1CCCCN1C(=O)Nc1cccc(Cl)c1` (stereo not given), with 0.789; and `CN1Cc2cc(C(=O)c3cc(Cl)cc(CSc4ncccn4)c3O)cnc2NC1=O`, with -0.712; and `CCOC(=O)CN1C(=O)C(Sc2n[nH]c(-c3ccccc3)n2)CCc2ccccc21` (stereo not given), with -0.0693. For the molecule `CC1CCCCN1C(=O)c1cc(F)c(F)cc1Cl` (stereo not given), the z-score is 0.0317. Then `NS(=O)(=O)c1ccc(NC(=O)CCC2CCCCC2)cc1`, with 0.495. The same measure for `COc1cccc(-c2nnc(SCC(=O)N3CCOCC3)o2)c1`: 0.305. `CC(=O)OCC1OC(n2ccc3ccccc32)C(OC(C)=O)C(OC(C)=O)C1OC(C)=O` (stereo not given) gave a z-score of 0.102. The same measure for `O=C(CSc1nnc(CNc2ccc(F)cc2)n1Cc1ccco1)NC1CC1`: -0.487; for `CC1CCN(c2ccc([N+](=O)[O-])cn2)CC1`: -0.0341. For `O=C1CCc2cc(S(=O)(=O)N3CCC(C(=O)NCc4ccccc4Cl)CC3)ccc2N1`, the z-score was -0.473. As for `CCC(CC)c1nnc(NC(=O)c2ccc3ccccc3n2)s1`, the z-score is active: 11.4. Then `Cc1cc(/C=N/n2cnnc2)c(C)n1-c1ccccc1`, with -0.143; and `COc1ccccc1Nc1ncnc2c1cnn2-c1cccc(C)c1`, with 0.293. Then `CSc1ccc(C(=S)N2CCN(C)CC2)cc1`, with -0.0432. Then `CS(=O)(=O)N1CCN(C(=O)Cc2ccccc2)CC1`, with 0.248. As for `O=C(O)CC(Cc1ccc(Cl)cc1)C(=O)NCc1ccccc1` (stereo not given), the z-score was -0.244.

For the molecule `O=C(CSc1ncn(-c2ccccc2)n1)Nc1ccc(Br)cn1`, the z-score is -0.314. The same measure for `COCCNc1c2c(nc3c(-c4ccccc4)c(C)nn13)CCCC2`: -0.65; for `Cc1ccccc1NC(=O)c1oc(=O)c2ccccc2c1-c1ccccc1`: -0.34. For the molecule `O=C(CCCOc1ccc(Cl)cc1Cl)n1nnc2ccccc21`, the z-score is -0.0622. Consider `COc1ccc(CCNS(=O)(=O)c2ccc3c(c2)n(C)c(=O)c(=O)n3C)cc1OC`, for which the z-score was found to be 0.539. Turning to `CC(C)(C)NC(=O)Cn1c(=O)oc2ccc(Cl)cc21`, the z-score amounted to 0.388.

The molecule `CN(C)S(=O)(=O)c1cccc(NC(=O)COC(=O)CCSc2ccc(Cl)cc2)c1` registered a z-score of 0.722. Then `O=C(O)c1ccc(NC(=O)c2cccs2)cc1`, with 0.3; and `C=CCC(C#Cc1ccccc1)[N+](C)(C)CC=C` (stereo not given), with -0.273. Then `Cn1cc(SCC(=O)N2CCCc3ccccc32)c2ccccc21`, with -0.879; and `Cc1ccc(-c2c(C#N)c(N)n3c(nc4ccccc43)c2C#N)cc1`, with 0.0249. The same measure for `Clc1ccc(-c2nc3cnccn3c2Nc2ccc3c(c2)OCO3)cc1`: -1.02; for `CCC(CC)NC(=O)C1CCN(S(=O)(=O)c2cccs2)CC1`: 0.208.

`CCCc1cc(=O)oc2cc(OCC(=O)N3CCc4ccccc43)ccc12` yielded a z-score of -0.116. The same measure for `Cc1cc(C)c[n+](-c2[nH]c(=O)sc2/C=N/NC([S-])=Nc2ccccc2)c1`: 0.162; for `O=C(NCc1ccc(Cl)cc1)C1CCCN(S(=O)(=O)c2cnc[nH]2)C1` (stereo not given): 0.5; for `CCOC(=O)c1[nH]c(C)c(C(=O)NCC2CCCO2)c1C` (stereo not given): -0.0349. For the molecule `CCn1cc(C(=O)OCC(=O)NCc2ccc3c(c2)OCO3)c(=O)c2ccc(C)nc21`, the z-score was -0.834. Then `Cc1ccc(-n2c(C3CC3c3ccc(Cl)cc3)n[nH]c2=S)cc1` (stereo not given), with 0.832.

The molecule `CCOC(=O)Nc1ccc2c(c1)N(C(=O)C(C)N1CCCC1)c1ccccc1CC2` (stereo not given) yielded a z-score of 0.468. With `Cc1nn(C)cc1/C=C1\SC(=S)NC1=O`, the z-score was 0.236. `Cc1ccccc1CS(=O)(=O)Cc1ccc(C(=O)NCCCN2CCOCC2)o1` yielded a z-score of -0.276. Regarding `Cc1occc1-c1nnc(SCC(=O)Nc2ccccc2)n1CCc1ccccc1`, the z-score was 0.954. The same measure for `CCNC(=S)NCc1ccc(F)cc1`: -0.134. Then `CC(c1ccccc1)N1CCn2c(nc3cc(NC(=O)NC4CCCCC4)ccc32)C1` (stereo not given), with -1.17; and `COc1ccc2ncn(-c3ccccc3)c2c1`, with -0.0476.

With `S=C(Nc1ccccc1Oc1ccccc1)Nc1cccc(Cl)c1Cl`, the z-score is active: 4.09. Then `Cc1cc(/C=C2\SC(=S)NC2=O)c(C)n1C`, with -0.121; and `Cc1ccc(NC(=S)NNC(=O)c2ccc(N3CCOCC3)c([N+](=O)[O-])c2)cc1C`, with -0.856. On to `COc1ccc(N2CCN(C(=O)CCCn3c(=S)[nH]c4cc5c(cc4c3=O)OCO5)CC2)cc1`, for which the z-score is -0.487.

For the molecule `CCc1cc2c(=O)c(-c3nc(C)cs3)coc2cc1OC(C)C(=O)NCCO` (stereo not given), the z-score is -0.25. The same measure for `CCOC(=O)CN(C(=O)CSc1nnc2c(n1)[nH]c1c(C)cc(C)cc12)c1ccccc1`: -0.0593.

Values taken from PubChem BioAssay AID488969 (Vanderbilt High Throughput Screening Facility, 2010).
